The supplement of paper PMC9911699
Some of the results follow.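 How the source made its calls: active = average curve height above 101 Omnilog units; inactive = average height at or below 101.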 Many values rest on one well or one pass, so single values are uncertain.

Tests used:
[1] = tested on: Acinetobacter baumannii AB6870155; experiment: respiration area under curve on compound as sole carbon source (Biolog PM, 48 h) (arbitrary Omnilog units x h (AUC)); higher = more carbon source utilisation / respiration; conditions: Biolog inoculating fluid, temperature: 37 °C
[2] = tested on: Klebsiella pneumoniae KP6870155; experiment: as above; conditions: Biolog inoculating fluid, temperature: 37 °C

| Compound | respiration area under curve [1] | respiration area under curve [2] |
| --- | --- | --- |
| O=C[C@H](O)[C@@H](O)[C@H](O)[C@H](O)COP(=O)(O)O [D-Glucose-6-Phosphate] | inactive: 1860 | active: 13400 |
| OC[C@H]1OC(O)[C@@H](O)[C@@H](O)[C@@H]1O (stereo partly drawn) [D-Mannose] | inactive: 2880 | active: 12400 |
| O=C(O)CC(O)C(=O)O (racemic) [D,L-Malic Acid] | active: 11400 | active: 11100 |
| O=C[C@H](O)[C@H](O)[C@@H](O)CO [L-Lyxose] | inactive: 3390 | active: 10000 |
| CO[C@@H]1O[C@H](CO)[C@H](O)[C@H](O)[C@H]1O [Beta-Methyl-D-Galactoside] | inactive: 1520 | active: 11300 |
| C[C@H](N)C(=O)O [L-Alanine] | active: 12100 | active: 11100 |
| CC(O)CO (stereo not drawn) [1,2-Propanediol] | inactive: 1530 | inactive: 3690 |
| N[C@H](CO)C(=O)O [D-Serine] | inactive: 1900 | inactive: 7360 |
| OC[C@H]1O[C@@H](Oc2ccc(O)cc2)[C@H](O)[C@@H](O)[C@@H]1O [Arbutin] | inactive: 1710 | active: 12600 |
| OCC1OC(OC2C(CO)OC(O)C(O)C2O)C(O)C(O)C1O [D-Cellobiose] | inactive: 2310 | active: 10700 |
| O=C1CCC(C(=O)O)O1 (stereo not drawn) [Alpha-Hydroxy Glutaric Acid-Gamma-Lactone] | inactive: 2010 | inactive: 3090 |
| CSCC[C@H](N)C(=O)O [L-Methionine] | inactive: 1870 | inactive: 4710 |
| CC(=O)N[C@H]1[C@@H](O)[C@H](O)[C@@H](CO)O[C@H]1O [N-Acetyl-Beta-D-Mannosamine] | inactive: 2500 | active: 8940 |
| OC[C@H]1O[C@@](CO)(O[C@H]2O[C@H](CO)[C@@H](O)[C@H](O)[C@H]2O)[C@@H](O[C@H]2O[C@H](CO)[C@@H](O)[C@H](O)[C@H]2O)[C@@H]1O [D-Melezitose] | inactive: 1520 | inactive: 4070 |
| OC[C@@]12OC[C@@H](O1)[C@@H](O)[C@@H](O)[C@@H]2O [Sedoheptulosan] | inactive: 1420 | inactive: 3250 |
| N[C@@H](Cc1c[nH]cn1)C(=O)O [L-Histidine] | active: 11100 | active: 11900 |
| O=C(O)Cc1cccc(O)c1 [m-Hydroxy Phenyl Acetic Acid] | inactive: 2700 | active: 11100 |
| CC(=O)N[C@@H](CO)[C@@H](O)[C@H](O)[C@H](O)CO [N-Acetyl-D-Glucosaminitol] | inactive: 1730 | inactive: 3930 |
| C[C@H](N)C(=O)NCC(=O)O [L-Alanyl-Glycine] | inactive: 3020 | active: 11000 |
| O=C(O)[C@@H]1C[C@@H](O)CN1 [Hydroxy-L-Proline] | active: 11700 | active: 11300 |

| Compound | respiration area under curve [1] | respiration area under curve [2] |
| --- | --- | --- |
| C=C(CC(=O)O)C(=O)O [Itaconic Acid] | inactive: 1400 | inactive: 1710 |
| OC[C@H]1OC(O)[C@H](O)[C@@H](O)[C@H]1O (stereo partly drawn) [D-Galactose] | inactive: 2720 | active: 12300 |
| O=C[C@H](O)[C@@H](O)[C@H](O)[C@H](O)CO[C@@H]1O[C@H](CO)[C@@H](O)[C@H](O)[C@H]1O [Gentiobiose] | inactive: 2660 | active: 12300 |
| O=C(O)[C@@H](O)[C@H](O)[C@H](O)[C@@H](O)C(=O)O [Mucic Acid] | active: 11700 | active: 10500 |
| NC(=O)CC[C@H](N)C(=O)O [L-Glutamine] | active: 12500 | active: 12100 |
| O=C(O)CCCCCCCCC(=O)O [Sebacic Acid] | active: 10200 | inactive: 2900 |
| NC(=O)CCC(=O)O [Succinamic Acid] | inactive: 4110 | inactive: 5170 |
| CC(=O)C(=O)O [Pyruvic Acid] | active: 11900 | active: 11600 |
| OC[C@@H](O)[C@@H](O)CO [i-Erythritol] | inactive: 2150 | inactive: 4070 |
| CC(=O)CC(=O)O [Acetoacetic Acid] | inactive: 3230 | inactive: 4630 |
| O[C@H]1[C@H](O)[C@@H](O)[C@H](O)[C@@H](O)[C@H]1O [Myo-Inositol] | inactive: 1670 | active: 10800 |
| O=C(O)CC(O)(C(=O)O)C(=O)C(=O)O (stereo not drawn) [Oxalomalic Acid] | inactive: 2020 | inactive: 4310 |
| NCC(=O)O [Glycine] | inactive: 575 | inactive: 3330 |
| CC(=O)C(C)O (stereo not drawn) [3-Hydroxy-2-Butanone] | inactive: 2800 | inactive: 4840 |
| CO[C@@H]1O[C@H](CO)[C@@H](O)[C@H](O)[C@H]1O [Beta-Methyl-D-Glucoside] | inactive: 1920 | active: 11000 |
| OC[C@H]1O[C@@H](O[C@H]2[C@H](O)[C@@H](O)[C@@H](O)O[C@@H]2CO)[C@H](O)[C@@H](O)[C@H]1O [Alpha-D-Lactose] | inactive: 1770 | active: 10900 |
| CC(C)[C@H](N)C(=O)O [L-Valine] | inactive: 1790 | inactive: 3650 |
| N=C(N)NCCC[C@H](N)C(=O)O [L-Arginine] | active: 11200 | active: 9320 |
| OC[C@H]1O[C@@H]2O[C@H]3[C@H](O)[C@@H](O)[C@@H](O[C@H]4[C@H](O)[C@@H](O)[C@@H](O[C@H]5[C@H](O)[C@@H](O)[C@@H](O[C@H]6[C@H](O)[C@@H](O)[C@@H](O[C@H]7[C@H](O)[C@@H](O)[C@@H](O[C@H]1[C@H](O)[C@H]2O)O[C@@H]7CO)O[C@@H]6CO)O[C@@H]5CO)O[C@@H]4CO)O[C@@H]3CO [Alpha-Cyclodextrin] | inactive: 2100 | inactive: 4330 |
| O=P(O)(O)OCC(O)CO (racemic) [D,L-alpha-Glycerol-Phosphate] | inactive: 1600 | active: 11300 |

| Compound | respiration area under curve [1] | respiration area under curve [2] |
| --- | --- | --- |
| O=C(O)[C@]1(O)C[C@@H](O)[C@@H](O)[C@H](O)C1 [Quinic Acid] | active: 10600 | active: 11500 |
| NCCCCN [Putrescine] | active: 13000 | active: 12300 |
| NC(=O)C[C@H](N)C(=O)O [L-Asparagine] | active: 12500 | active: 11400 |
| O=C(O)CC(=O)O [Malonic Acid] | inactive: 6080 | inactive: 3190 |
| CCCC(=O)C(=O)O [Alpha-Keto-Valeric Acid] | active: 10800 | inactive: 3090 |
| OC[C@@H](O)[C@H](O)[C@@H](O)CO [Xylitol] | inactive: 1590 | inactive: 4960 |
| OCc1ccccc1O[C@@H]1O[C@H](CO)[C@@H](O)[C@H](O)[C@H]1O [Salicin] | inactive: 1430 | active: 11500 |
| OC[C@@H](O)[C@@H](O)[C@H](O)[C@H](O)CO [D-Mannitol] | inactive: 1910 | active: 11600 |
| O=P(O)(O)O[C@H]1O[C@H](CO)[C@@H](O)[C@H](O)[C@H]1O [D-Glucose-1-Phosphate] | inactive: 1510 | active: 11700 |
| CCC(=O)C(=O)O [Alpha-Keto-Butyric Acid] | active: 9580 | inactive: 2460 |
| O=C(O)[C@@H]1CCCN1 [L-Proline] | active: 11900 | active: 12000 |
| O=C(O)[C@H](O)[C@@H](O)C(=O)O [L-Tartaric Acid] | inactive: 2530 | active: 10700 |
| N[C@@H](CO)C(=O)O [L-Serine] | inactive: 2720 | active: 10900 |
| OC[C@@H](O)[C@@H](O[C@@H]1O[C@H](CO)[C@H](O)[C@H](O)[C@H]1O)[C@H](O)[C@@H](O)CO [Lactitol] | inactive: 1560 | active: 9520 |
| O=C(O)CC(O)(CC(=O)O)C(=O)O [Citric Acid] | active: 9470 | active: 10600 |
| O=C1CC[C@@H](C(=O)O)N1 [L-Pyroglutamic Acid] | active: 12100 | inactive: 3880 |
| C[C@@H](N)C(=O)O [D-Alanine] | active: 11400 | active: 11900 |
| OC[C@H]1O[C@H](O[C@H]2O[C@H](CO)[C@@H](O)[C@H](O)[C@H]2O)[C@H](O)[C@@H](O)[C@@H]1O [D-Trehalose] | inactive: 1380 | active: 12700 |
| NCC(=O)N[C@@H](CC(=O)O)C(=O)O [Glycyl-L-Aspartic Acid] | inactive: 2560 | active: 10600 |
